# Assay results taken from the supplement of paper PMC4604168 (melanoma cell lines).
# The list shows a part of the results. Many values rest on one well or one pass, so single values are uncertain.
# How the values were obtained:
# Assay in all cases: cell count relative to DMSO control; melanoma cells; higher = more viable cells
# Settings in all cases: library dose: standard library concentration; 72 h
# G361 = test system: G361
# IPC-298 = test system: IPC-298
# IST-MEL1 = test system: IST-MEL1
# LB2518-MEL = test system: LB2518-MEL
# LOXIMVI = test system: LOXIMVI
# MEL-HO = test system: MEL-HO
# MZ2-MEL = test system: MZ2-MEL
# MeWo = test system: MeWo
# RPMI7951 = test system: RPMI7951
# RVH-421 = test system: RVH-421
# SkMel28 = test system: SkMel28
# SkMel2 = test system: SkMel2
# SkMel30 = test system: SkMel30
# SkMel5 = test system: SkMel5
# UACC257 = test system: UACC257
# UACC62 = test system: UACC62
# WM115 = test system: WM115
# WM1716 = test system: WM1716
# WM1745 = test system: WM1745
# WM3526 = test system: WM3526
# 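Also: cells treated in 1,536-well plates, then fixed and DAPI-stained, with nuclei counted from automated high-throughput microscope images.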
Structure (SMILES),cell count (G361),cell count (IPC-298),cell count (IST-MEL1),cell count (LB2518-MEL),cell count (LOXIMVI),cell count (MEL-HO),cell count (MZ2-MEL),cell count (MeWo),cell count (RPMI7951),cell count (RVH-421),cell count (SkMel28),cell count (SkMel2),cell count (SkMel30),cell count (SkMel5),cell count (UACC257),cell count (UACC62),cell count (WM115),cell count (WM1716),cell count (WM1745),cell count (WM3526)
"CC(=O)c1c(C)c2cnc(Nc3ccc(N4CCNCC4)cn3)nc2n(C2CCCC2)c1=O [palbociclib] + Cn1c(Nc2ccc(C(F)(F)F)cc2)nc2cc(Oc3ccnc(-c4ncc(C(F)(F)F)[nH]4)c3)ccc21 [CHIR265] (first compound 0.2 µM, partner dose 0.4 µM)",19.7%,33.9%,58.4%,29.5%,67.1%,47.4%,55.3%,34.7%,47.1%,57.9%,22.7%,45.6%,37.8%,39.7%,68%,43%,27.9%,37.5%,55.4%,40%
"Nc1ccn([C@@H]2O[C@H](CO)[C@@H](O)C2(F)F)c(=O)n1 [gemcitabine] + Nc1ncn([C@H]2C[C@H](O)[C@@H](CO)O2)c(=O)n1 [decitabine] (first compound 0.002 µM, partner dose 0.5 µM)",29.3%,34.6%,36.6%,58.8%,74.7%,42.1%,49.3%,30.9%,44.7%,66.6%,66.5%,92%,97.5%,60.3%,87.3%,62%,53%,49.4%,59.5%,80.3%
"Nc1ncn([C@H]2C[C@H](O)[C@@H](CO)O2)c(=O)n1 [decitabine] + Cc1cc(N2CCOCC2)cc2[nH]c(-c3c(NC[C@@H](O)c4cccc(Cl)c4)cc[nH]c3=O)nc12 [BMS536924] (first compound 0.5 µM, partner dose 1 µM)",85.2%,89.7%,92.4%,91.1%,92.6%,89%,134%,78.2%,97.6%,94.7%,117%,86.1%,87.5%,81.4%,112%,97.3%,99.5%,102%,54.8%,78.9%
"Nc1ncn([C@H]2C[C@H](O)[C@@H](CO)O2)c(=O)n1 [decitabine] + OCc1c[nH]c2ccccc12 [Indole-3-carbinol] (first compound 0.5 µM, partner dose 4 µM)",78.5%,54.2%,85.3%,73.8%,126%,86.5%,87.4%,64.4%,83%,86%,82.6%,108%,103%,84.6%,112%,48%,82.8%,84.6%,93%,107%
"Nc1ncn([C@H]2C[C@H](O)[C@@H](CO)O2)c(=O)n1 [decitabine] + Cn1nnc2c(C(N)=O)ncn2c1=O [temozolomide] (first compound 0.5 µM, partner dose 10 µM)",75.4%,53.6%,65.6%,76.5%,60.3%,69.5%,66.3%,74.7%,60.8%,81%,43.3%,122%,68%,81.9%,103%,65.8%,82.8%,54.2%,111%,119%
"CO[C@H]1C[C@@H]2CC[C@@H](C)[C@@](O)(O2)C(=O)C(=O)N2CCCC[C@H]2C(=O)O[C@H]([C@H](C)C[C@@H]2CC[C@@H](OCCO)[C@H](OC)C2)CC(=O)[C@H](C)/C=C(\C)[C@@H](O)[C@@H](OC)C(=O)[C@H](C)C[C@H](C)/C=C/C=C/C=C/1C [everolimus] + Nc1nc(F)nc2c1ncn2[C@@H]1O[C@H](CO)[C@@H](O)[C@@H]1O [fludarabine] (first compound 0.1 µM, partner dose 1 µM)",58.5%,66.6%,63.8%,69.7%,56.1%,60.1%,71.5%,68.6%,35.8%,85.6%,1.84%,3.5%,14.8%,28.1%,30.5%,64.7%,71.7%,65.2%,73%,21.6%
"CO[C@H]1C[C@@H]2CC[C@@H](C)[C@@](O)(O2)C(=O)C(=O)N2CCCC[C@H]2C(=O)O[C@H]([C@H](C)C[C@@H]2CC[C@@H](OCCO)[C@H](OC)C2)CC(=O)[C@H](C)/C=C(\C)[C@@H](O)[C@@H](OC)C(=O)[C@H](C)C[C@H](C)/C=C/C=C/C=C/1C [everolimus] + COc1ccc(Cl)c(Nc2nc3ccccc3nc2NS(=O)(=O)c2cccc(NC(=O)C(C)(C)N)c2)c1 [XL147] (first compound 0.1 µM, partner dose 4 µM)",64.4%,62.4%,70.3%,70.4%,86%,61.4%,62.9%,63.1%,101%,78.7%,44.7%,79.9%,70.8%,63.8%,97.5%,62.8%,69.8%,81.7%,84.7%,64.9%
"Nc1nc(F)nc2c1ncn2[C@@H]1O[C@H](CO)[C@@H](O)[C@@H]1O [fludarabine] + COc1cc2c(Oc3ccc4[nH]c(C)cc4c3F)ncnc2cc1OCCCN1CCCC1 [cediranib] (first compound 1 µM, partner dose 2 µM)",92.8%,79.4%,76.7%,80.2%,58.6%,76.3%,126%,68.5%,71%,76%,6.84%,3.21%,18.6%,28.6%,37.6%,53.7%,98%,107%,94.5%,34.3%
"CC(=O)O[C@@]12CO[C@@H]1C[C@H](O)[C@@]1(C)C(=O)[C@H](O)C3=C(C)[C@@H](OC(=O)[C@H](O)[C@@H](NC(=O)OC(C)(C)C)c4ccccc4)C[C@@](O)([C@@H](OC(=O)c4ccccc4)[C@H]21)C3(C)C [Docetaxel] + O=C(CCCCCCC(=O)Nc1ccccc1)NO [vorinostat] (first compound 0.0005 µM, partner dose 0.4 µM)",12.5%,55.6%,43.6%,52.2%,48.2%,41.9%,54.1%,30.7%,18.7%,56.2%,23.9%,15.6%,43.6%,31.2%,46.2%,70.1%,50.2%,32.9%,51.4%,32.6%
"Nc1ccn([C@@H]2O[C@H](CO)[C@@H](O)C2(F)F)c(=O)n1 [gemcitabine] + CC(=O)c1c(C)c2cnc(Nc3ccc(N4CCNCC4)cn3)nc2n(C2CCCC2)c1=O [palbociclib] (first compound 0.002 µM, partner dose 0.2 µM)",42.6%,42.1%,42.5%,68.2%,55.9%,60.4%,56.8%,41.9%,62.8%,52.4%,53.7%,81.7%,72.5%,40.9%,78.5%,64.2%,54.8%,38.4%,60.1%,67.8%
"CO[C@H]1C[C@@H]2CC[C@@H](C)[C@@](O)(O2)C(=O)C(=O)N2CCCC[C@H]2C(=O)O[C@H]([C@H](C)C[C@@H]2CC[C@@H](OCCO)[C@H](OC)C2)CC(=O)[C@H](C)/C=C(\C)[C@@H](O)[C@@H](OC)C(=O)[C@H](C)C[C@H](C)/C=C/C=C/C=C/1C [everolimus] + Nc1cccc2c1CN(C1CCC(=O)NC1=O)C2=O [lenalidomide] (first compound 0.1 µM, partner dose 5 µM)",63.3%,60.5%,85.7%,62.4%,66.7%,72.7%,82.7%,69.9%,93.7%,92%,58.1%,68.8%,61.8%,59.9%,83.9%,84.3%,74.8%,69.4%,88.6%,93.2%
"Nc1nc(F)nc2c1ncn2[C@@H]1O[C@H](CO)[C@@H](O)[C@@H]1O [fludarabine] + Cc1ccc(NC(=O)c2cccc(N(C)C)c2)cc1NC(=O)c1ccc(O)cc1 [ZM336372] (first compound 1 µM, partner dose 10 µM)",101%,87.4%,67.4%,98%,98.2%,83.4%,115%,101%,71.1%,82.2%,3.2%,1.35%,21.7%,32.9%,39.3%,68.8%,75.1%,114%,74.5%,28.4%
"CC(=O)O[C@@]12CO[C@@H]1C[C@H](O)[C@@]1(C)C(=O)[C@H](O)C3=C(C)[C@@H](OC(=O)[C@H](O)[C@@H](NC(=O)OC(C)(C)C)c4ccccc4)C[C@@](O)([C@@H](OC(=O)c4ccccc4)[C@H]21)C3(C)C [Docetaxel] + CO[C@H]1C[C@@H]2CC[C@@H](C)[C@@](O)(O2)C(=O)C(=O)N2CCCC[C@H]2C(=O)O[C@H]([C@H](C)C[C@@H]2CC[C@@H](OCCO)[C@H](OC)C2)CC(=O)[C@H](C)/C=C(\C)[C@@H](O)[C@@H](OC)C(=O)[C@H](C)C[C@H](C)/C=C/C=C/C=C/1C [everolimus] (first compound 0.0005 µM, partner dose 0.1 µM)",12.6%,27.7%,31.3%,32.6%,44.8%,43.2%,37.5%,26.7%,26.4%,44.6%,11.4%,15.9%,35.6%,23.3%,61.8%,47.9%,25.7%,32.9%,35.9%,37.7%
